Laboratory results reported in PubChem BioAssay (Tox21).
Several values for one entry are separate records, joined by “and”; a condition that tells them apart may be missing. Equal entries are not always repeated. Inconclusive results, whose numbers are uncertain, are shown with a selection of clear calls. For part of these data: Where the call is inconclusive, the potency comes from a doubtful curve fit. Activity calls are given as the source filed them. Unless noted, the call rests on the fitted dose curve; in most records, active means well fitted cell-killing curve with a large enough effect in the repeat runs; inconclusive means weak or mixed curves, or effect the other way; inactive means no such curve, though single readings can be large or run the other way.
On the % scale 0 is the no-effect control and ±100 the full control effect; tags describe the fitted curve by direction and shape or compound fluorescence and quenching.

Molecular target: Peroxisome proliferator-activated receptor delta (Homo sapiens) (UniProt Q03181)
Sequence of UniProt Q03181 (Q03181 whole entry, looked up): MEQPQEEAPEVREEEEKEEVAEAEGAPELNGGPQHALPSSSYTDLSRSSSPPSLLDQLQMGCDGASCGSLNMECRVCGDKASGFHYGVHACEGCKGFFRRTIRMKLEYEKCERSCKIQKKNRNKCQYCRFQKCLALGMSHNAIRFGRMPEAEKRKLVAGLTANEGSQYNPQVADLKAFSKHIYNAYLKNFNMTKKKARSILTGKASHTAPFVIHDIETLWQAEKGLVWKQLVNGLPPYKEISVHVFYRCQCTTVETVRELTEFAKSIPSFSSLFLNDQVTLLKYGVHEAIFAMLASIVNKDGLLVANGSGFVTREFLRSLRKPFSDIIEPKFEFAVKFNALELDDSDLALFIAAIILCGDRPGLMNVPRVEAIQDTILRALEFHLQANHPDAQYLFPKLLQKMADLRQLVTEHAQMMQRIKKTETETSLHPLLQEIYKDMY
Test: qHTS assay to identify small molecule antagonists of the peroxisome proliferator-activated receptor delta (PPARd) signaling pathway (AID 743215; active means well fitted inhibition curve with a large enough effect in the signal ratio in the repeat runs, not every such curve was filed as active; inconclusive means weak or mixed curves, or effect the other way; inactive means no such curve, though single readings can be large or run the other way; the % refers to the signal ratio;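 further: cells stimulated with agonist L165041 at 300 nM final during compound exposure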; further: potency means the concentration at half of the fitted maximal effect)
Settings: HEK293H PPARd-UAS-bla, beta-lactamase FRET ratio, antagonist, 17 h; ratio activity, negative = inhibition: at 62 µM (top of the series) unless noted
Outline: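 Screen format: qHTS, antagonist mode. HEK293H PPARd-bla cells received compound and 300 nM L165041 (final), 17 h, 37 C. Beta-lactamase detected via FRET substrate fluorescence, 2 h, room temperature.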
For `Cc1c(Cn2ccnc2)c2ccccc2n1CCC(=O)O`, the ratio activity, negative = inhibition was inconclusive: -1.46%.
With `CC1(C)S[C@@H]2[C@H](NC(=O)COc3ccccc3)C(=O)N2[C@H]1C(=O)O` the Potency was inconclusive: 61.8 µM [activator].
In the case of `CCCCCCCCCCCCC`, the Potency was inconclusive: 0.389 µM [fluorescent, full curve, poor fit].
In the case of `CC1(C)C(=O)N(Cl)C(=O)N1Br`, the ratio activity, negative = inhibition was inconclusive: 14.3%.
With `C[C@@H]1C[C@H]2[C@@H]3CCC4=CC(=O)C=C[C@]4(C)[C@@]3(F)[C@@H](O)C[C@]2(C)[C@@]1(O)C(=O)CO` the “ratio activity, negative = inhibition” value was inactive: 11.1% [at 80.4 µM].
For `CN(C)CCOC(C)(c1ccccc1)c1ccccn1` (stereo not given), the Potency was “inactive”.

Molecular target: Bile acid receptor (Homo sapiens) (UniProt Q96RI1)
Sequence of UniProt Q96RI1 (Q96RI1 whole entry, looked up): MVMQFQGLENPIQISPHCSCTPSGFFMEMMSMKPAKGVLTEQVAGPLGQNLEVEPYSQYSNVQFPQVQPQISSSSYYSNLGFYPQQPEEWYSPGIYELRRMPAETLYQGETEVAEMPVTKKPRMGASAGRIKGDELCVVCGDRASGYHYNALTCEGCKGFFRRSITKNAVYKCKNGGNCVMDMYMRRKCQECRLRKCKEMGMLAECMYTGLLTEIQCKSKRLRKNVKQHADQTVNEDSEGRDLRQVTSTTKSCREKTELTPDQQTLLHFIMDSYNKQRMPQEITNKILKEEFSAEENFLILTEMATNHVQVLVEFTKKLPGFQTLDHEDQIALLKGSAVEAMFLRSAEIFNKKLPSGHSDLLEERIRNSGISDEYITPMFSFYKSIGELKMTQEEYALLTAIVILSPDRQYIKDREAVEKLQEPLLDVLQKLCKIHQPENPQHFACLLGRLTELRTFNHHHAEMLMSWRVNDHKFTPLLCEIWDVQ
Test: qHTS assay to identify small molecule antagonists of the farnesoid-X-receptor (FXR) signaling pathway (AID 743217; active means well fitted inhibition curve with a large enough effect in the signal ratio in the repeat runs, not every such curve was filed as active; inconclusive means weak or mixed curves, or effect the other way; inactive means no such curve, though single readings can be large or run the other way; the % refers to the signal ratio)
Settings: HEK293T FXR-UAS-bla, beta-lactamase ratio, CDCA-stimulated, 16 h; activity change, negative = inhibition: at 62.6 µM (top of the series) unless noted
Outline: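 Quantitative HTS, beta-lactamase reporter format: FXR-UAS-bla HEK 293T cells co-treated 16 h at 37 °C with compounds and 50 uM final chenodeoxycholic acid, then read by B/G FRET fluorescence.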
For `c1ccc2[nH]c(-c3cscn3)nc2c1`, the activity change, negative = inhibition was inconclusive: 3.67%.
In the case of `C[C@H]1[C@H](NC(=O)/C(=N/OC(C)(C)C(=O)O)c2csc(N)n2)C(=O)N1S(=O)(=O)O` (stereo in doubt), the “activity change, negative = inhibition” value was inactive: 1.63%.
With `CC(C)Nc1cccnc1N1CCN(C(=O)c2cc3cc(NS(C)(=O)=O)ccc3[nH]2)CC1` the “activity change, negative = inhibition” value was inactive: -8.54%.
With `Nc1ccccc1S(=O)(=O)c1ccccc1` the “activity change, negative = inhibition” value was inactive: 2.93%.
With `COC(=O)c1ccc(C)cc1` the Potency was “inactive”.
With `Cc1cc(N)c2cc(NC(=O)Nc3ccc4nc(C)cc(N)c4c3)ccc2n1` the activity change, negative = inhibition was inconclusive: -17.7%.
In the case of `O=C=Nc1ccc(Cc2ccc(N=C=O)cc2)cc1`, the activity change, negative = inhibition was inconclusive: -10.3%.

Tested on: not listed separately
Test: qHTS assay to identify small molecule agonists of the farnesoid-X-receptor (FXR) signaling pathway - cell viability counter screen (AID 743218); further: nearly all actives have a fitted effect of over 45% in size; further: potency means the concentration at half of the fitted maximal effect
Settings: FXR-bla HEK293T viability, CellTiter-Glo luminescence, 16 h; viability change, negative = cytotoxic: at 62.6 µM (top of the series) unless noted
Outline: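 Same-well cytotoxicity check on FXR-UAS-bla HEK 293T cells: 5 h attachment, 16 h compound at 37 C, CellTiter-Glo luminescence read at room temperature after 30 min.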
For `C=C(C)C(=O)OCCC[Si](Cl)(Cl)Cl`, the Potency was inconclusive: 2.21 µM [rising, full curve, poor fit].
For `CN(CC1(C)CCCO1)S(=O)(=O)c1ccc(Cl)c(S(N)(=O)=O)c1` (stereo not given), the “viability change, negative = cytotoxic” value was inactive: -1.9%.
For `CCOCCn1c(N2CCCN(C)CC2)nc2ccccc21`, the Potency was inconclusive: 26.6 µM [rising, partial curve, poor fit].
For `c1ccc(CNc2ncnc3nc[nH]c23)cc1`, the “viability change, negative = cytotoxic” value was inactive: -3.42%.
With `CCCCCCCCCCCCC` the Potency was inconclusive: 30.9 µM [rising, partial curve, poor fit].
In the case of `COC(=O)c1cc(S(N)(=O)=O)ccc1OC`, the “viability change, negative = cytotoxic” value was inactive: 6.82%.
With `CCCCOc1ccc(CC(=O)NO)cc1` the Potency was inconclusive: 21.1 µM [cytotoxic, partial curve, poor fit].
In the case of `CC1(C)O[C@@H]2C[C@H]3[C@@H]4CCC5=CC(=O)CC[C@]5(C)[C@@]4(F)[C@@H](O)C[C@]3(C)[C@]2(C(=O)CCl)O1`, the Potency was inconclusive: 0.0021 µM [rising, full curve, poor fit].
In the case of `CC(C)OC(=O)c1ccccc1`, the “viability change, negative = cytotoxic” value was inactive: 8.98% [at 81.1 µM].
For `C[C@@H]1C[C@H]2[C@@H]3CCC4=CC(=O)C=C[C@]4(C)[C@@]3(F)[C@@H](O)C[C@]2(C)[C@@]1(O)C(=O)CO`, the Potency was inconclusive: 2.22 µM [rising, partial curve].
For `C=C(C)C1CC=C(C)CC1` (stereo not given), the Potency was inconclusive: 0.804 µM [rising, full curve].
With `CN(C)CCOC(C)(c1ccccc1)c1ccccn1` (stereo not given) the Potency was “inactive”.
With `O=C=Nc1ccc(Cc2ccc(N=C=O)cc2)cc1` the Potency was “inactive”.

Molecular target: Bile acid receptor (Homo sapiens) (UniProt Q96RI1)
Test: qHTS assay to identify small molecule agonists of the farnesoid-X-receptor (FXR) signaling pathway (AID 743220; active means well fitted activation curve with a large enough effect in the signal ratio in the repeat runs, not every such curve was filed as active; inconclusive means weak or mixed curves, or effect the other way; the % refers to the signal ratio; further: potency means the concentration at half of the fitted maximal effect)
Settings: HEK293T FXR-UAS-bla, beta-lactamase FRET ratio, 16 h; activation: at 62.6 µM (top of the series) unless noted
Outline: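 FXR-UAS-bla HEK 293T cells carrying a UAS-driven beta-lactamase reporter were plated for 5 h at 37C/5% CO2, then exposed to DMSO-dissolved Tox21 10K compounds for 16 h at 37C. A LiveBLAzer B/G FRET substrate was loaded for 2 h at room temperature before fluorescence reading.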
For `Cc1cc2c(cc1S(N)(=O)=O)S(=O)(=O)CCC2`, the Potency was inconclusive: 5.31 µM [falling, partial curve, poor fit].
With `c1ccc(CNc2ncnc3nc[nH]c23)cc1` the “activation” value was inactive: 0.14%.
In the case of `c1cc2ccc3ccc4ccc5cccc6c(c1)c2c3c4c56`, the activation was inconclusive: 11.6% [at 2.7 µM].
For `CC(C)Nc1cccnc1N1CCN(C(=O)c2cc3cc(NS(C)(=O)=O)ccc3[nH]2)CC1`, the activation was inconclusive: 5.2%.
With `COc1cc(C=O)ccc1O` the Potency was “inactive”.
For `CC1(C)O[C@@H]2C[C@H]3[C@@H]4CCC5=CC(=O)CC[C@]5(C)[C@@]4(F)[C@@H](O)C[C@]3(C)[C@]2(C(=O)CCl)O1`, the activation was inconclusive: -1.9%.
With `COC(=O)c1ccc(C)cc1` the Potency was “inactive”.
For `CN(C)CCOC(C)(c1ccccc1)c1ccccn1` (stereo not given), the Potency was “inactive”.
For `CCCCc1cc2ccccc2c(OCCN(C)C)n1`, the “activation” value was inactive: 5.15%.

Molecular target: Vitamin D3 receptor (Homo sapiens) (UniProt P11473)
Sequence of UniProt P11473 (P11473 whole entry, looked up): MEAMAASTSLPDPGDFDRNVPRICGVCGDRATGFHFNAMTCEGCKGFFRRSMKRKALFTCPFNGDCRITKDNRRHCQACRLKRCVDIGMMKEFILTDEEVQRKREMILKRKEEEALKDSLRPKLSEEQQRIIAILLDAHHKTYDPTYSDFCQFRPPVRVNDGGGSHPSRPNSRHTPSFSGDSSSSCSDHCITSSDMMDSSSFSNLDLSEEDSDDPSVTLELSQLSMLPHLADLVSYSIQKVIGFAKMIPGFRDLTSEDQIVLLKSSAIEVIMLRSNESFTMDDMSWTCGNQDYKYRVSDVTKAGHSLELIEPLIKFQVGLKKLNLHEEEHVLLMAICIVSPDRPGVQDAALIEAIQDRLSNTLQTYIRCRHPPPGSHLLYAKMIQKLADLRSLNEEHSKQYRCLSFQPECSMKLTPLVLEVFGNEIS
Test: qHTS assay to identify small molecule agonists of the vitamin D receptor (VDR) signaling pathway (AID 743222; calls by dose curve; further: potency means the concentration at half of the fitted maximal effect)
Settings: HEK293T VDR-UAS-bla, beta-lactamase FRET ratio, 16 h; activation: at 63.5 µM (top of the series) unless noted
Outline: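 Using LiveBLAzer B/G FRET detection, agonism was scored in VDR-bla cells exposed overnight (16 h, 37C) to DMSO-dissolved compounds; substrate incubation was 2 h at room temperature.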
For `Cc1nc2ccccn2c(=O)c1CCN1CCC(C(=O)c2ccc(F)cc2)CC1`, the activation was inconclusive: -9.09%.
For `c1cc2ccc3ccc4ccc5cccc6c(c1)c2c3c4c56`, the activation was inconclusive: 20.2% [at 2.71 µM].
With `CC(C)Nc1cccnc1N1CCN(C(=O)c2cc3cc(NS(C)(=O)=O)ccc3[nH]2)CC1` the “activation” value was inactive: -9.13%.
With `COCCc1ccc(OCC(O)CNC(C)C)cc1` (stereo not given) the “activation” value was inactive: 2.18%.
With `CCCCOc1ccc(CC(=O)NO)cc1` the Potency was inconclusive: 23.7 µM [inhibitor, partial curve].
In the case of `Oc1ccc(Cc2ccccc2)cc1`, the “activation” value was inactive: -1.72%.
For `Cc1cc(N)c2cc(NC(=O)Nc3ccc4nc(C)cc(N)c4c3)ccc2n1`, the “activation” value was inactive: -13.3%.

Molecular target: Vitamin D3 receptor (Homo sapiens) (UniProt P11473)
Test: qHTS assay to identify small molecule antagonists of the vitamin D receptor (VDR) signaling pathway (AID 743223; active means well fitted inhibition curve with a large enough effect in the signal ratio in the repeat runs, not every such curve was filed as active; inconclusive means weak or mixed curves, or effect the other way; inactive means no such curve, though single readings can be large or run the other way; the % refers to the signal ratio; further: potency means the concentration at half of the fitted maximal effect)
Settings: VDR-UAS-bla HEK293T, beta-lactamase FRET ratio, 16 h; activity change, negative = inhibition: at 61 µM (top of the series) unless noted
Outline: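 Antagonist mode uses 1alpha,25-dihydroxyvitamin D3 at 3 nM final as stimulus. VDR-bla cells receive compounds in DMSO, incubate 16 h at 37C, then a beta-lactamase FRET substrate for 2 h at room temperature before fluorescence measurement.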
In the case of `Cc1ccc(O)c([C@H](CCN(C(C)C)C(C)C)c2ccccc2)c1`, the “activity change, negative = inhibition” value was inactive: -12.7%.
With `CCOCCn1c(N2CCCN(C)CC2)nc2ccccc21` the “activity change, negative = inhibition” value was inactive: 8.47%.
For `Cc1c(Cn2ccnc2)c2ccccc2n1CCC(=O)O`, the activity change, negative = inhibition was inconclusive: 10.2%.
With `CC1(C)S[C@@H]2[C@H](NC(=O)COc3ccccc3)C(=O)N2[C@H]1C(=O)O` the activity change, negative = inhibition was inconclusive: -1.87% and inconclusive: -0.306%.
In the case of `CCCCCCCCCCCCC`, the activity change, negative = inhibition was inconclusive: 5.1%.
In the case of `OCC(CO)(CO)COCC(CO)(CO)CO`, the “activity change, negative = inhibition” value was inactive: -32.9%.
In the case of `NC1CCCCC1N` (stereo not given), the activity change, negative = inhibition was inconclusive: 4.38% [at 78.8 µM].
For `CCC1COC(=O)O1` (stereo not given), the “activity change, negative = inhibition” value was inactive: -13.9%.
For `CCC(=O)O[C@]1(C(=O)SCF)[C@H](C)C[C@H]2[C@@H]3C[C@H](F)C4=CC(=O)C=C[C@]4(C)[C@@]3(F)[C@@H](O)C[C@@]21C`, the activity change, negative = inhibition was inconclusive: 39.5%.
With `Nc1ccccc1S(=O)(=O)c1ccccc1` the activity change, negative = inhibition was inconclusive: 24.2%.
For `CCCCCCCCCCCCCC(=O)OC`, the activity change, negative = inhibition was inconclusive: 0.605%.
With `Oc1ccc(Cc2ccccc2)cc1` the Potency was inconclusive: 16.1 µM [rising, partial curve, poor fit].
For `CC1(C)O[C@@H]2C[C@H]3[C@@H]4CCC5=CC(=O)CC[C@]5(C)[C@@]4(F)[C@@H](O)C[C@]3(C)[C@]2(C(=O)CCl)O1`, the Potency was inconclusive: 42.5 µM [activator, single point].
With `CC(C)OC(=O)c1ccccc1` the activity change, negative = inhibition was inconclusive: 1.57% [at 78.8 µM].
For `COC(=O)c1ccc(C)cc1`, the Potency was “inactive and inconclusive: 6.17 µM [fluorescent, partial curve]”.
For `CN(C)CCOC(C)(c1ccccc1)c1ccccn1` (stereo not given), the activity change, negative = inhibition was inconclusive: 1.93%.
For `CCCCc1cc2ccccc2c(OCCN(C)C)n1`, the “activity change, negative = inhibition” value was inactive: -12.3%.
In the case of `O=C=Nc1ccc(Cc2ccc(N=C=O)cc2)cc1`, the Potency was “inactive and inconclusive: 3.93 µM [activator, full curve]”.
